{"source": "patent US11807625B2", "about": "“Capsid inhibitors for the prevention of HIV” (Gilead Sciences, Inc., priority 2019, dated 2023)", "test": "Plasma concentration vs. time profile of Compound Ib in rhesus after single subcutaneous dose (SHIV challenge study)", "type": "in vivo, rhesus macaques", "note": "Where “and” joins values, the source holds several entries; their conditions need not be identical. Equal values may be shown once. The source gives many values for each of these; only a part stands here.", "data": [{"smiles": "CC(C)(C#Cc1ccc(-c2ccc(Cl)c3c(NS(=O)(=O)C4CC4)nn(CC(F)F)c23)c([C@H](Cc2cc(F)cc(F)c2)NC(=O)Cn2nc(C(F)F)c3c2C(F)(F)[C@@H]2C[C@H]32)n1)S(C)(=O)=O", "note": "[Compound Ib, N—((S)-1-(3-(4-chloro-3-(cyclopropanesulfonamido)-1-(2,2-difluoroethyl)-1H-indazol-7-yl)-6-(3-methyl-3-(methylsulfonyl)but-1-yn-1-yl)pyridin-2-yl)-2-(3,5-difluorophenyl)ethyl)-2-((3b S,4aR)-3-(difluoromethyl)-5,5-difluoro-3b,4,4a,5-tetrahydro-1H-cyclopropa[3,4]cyclopenta[1,2-c]pyrazol-1-yl)acetamide]", "values": [{"measurement": "Plasma Compound Ib Concentrations", "setting": "150 mg/kg SC day 0, individual animals, study week 1, SHIV dose 10 x TCID50", "result": "688 nM and 900 nM and 682 nM and 607 nM"}, {"measurement": "Plasma Compound Ib Concentrations", "setting": "150 mg/kg SC day 0, individual animals, study week 2, SHIV dose 10 x TCID50", "result": "773 nM and 1189 nM and 785 nM and 1097 nM"}, {"measurement": "Plasma Compound Ib Concentrations", "setting": "150 mg/kg SC day 0, individual animals, study week 3, SHIV dose 10 x TCID50", "result": "197 nM and 498 nM and 269 nM"}, {"measurement": "Plasma Compound Ib Concentrations", "setting": "150 mg/kg SC day 0, individual animals, study week 4, SHIV dose 10 x TCID50", "result": "68 nM and 153 nM and 237 nM and 181 nM"}, {"measurement": "Plasma Compound Ib Concentrations", "setting": "150 mg/kg SC day 0, individual animals, study week 5, SHIV dose 10 x TCID50", "result": "95 nM and 181 nM and 87 nM and 203 nM"}, {"measurement": "Plasma Compound Ib Concentrations", "setting": "150 mg/kg SC day 0, individual animals, study week 6, SHIV dose 10 x TCID50", "result": "94 nM and 239 nM and 84 nM and 202 nM"}, {"measurement": "Plasma Compound Ib Concentrations", "setting": "150 mg/kg SC day 0, individual animals, study week 7, SHIV dose 10 x TCID50", "result": "65 nM and 104 nM and 58 nM and 136 nM"}, {"measurement": "Plasma Compound Ib Concentrations", "setting": "150 mg/kg SC day 0, individual animals, study week 8, SHIV dose 10 x TCID50", "result": "126 nM and 152 nM and 171 nM"}, {"measurement": "Plasma Compound Ib Concentrations", "setting": "150 mg/kg SC day 0, individual animals, study week 9, SHIV dose 33 x TCID50", "result": "25 nM and 66 nM and 41 nM and 79 nM"}, {"measurement": "Plasma Compound Ib Concentrations", "setting": "150 mg/kg SC day 0, individual animals, study week 10, SHIV dose 33 x TCID50", "result": "51 nM and 157 nM and 35 nM and 37 nM and 31 nM and 47 nM and 61 nM and 87 nM"}, {"measurement": "Plasma Compound Ib Concentrations", "setting": "150 mg/kg SC day 0, individual animals, study week 11, SHIV dose 100 x TCID50", "result": "345 nM and 41 nM and 18 nM and 14 nM and 15 nM and 26 nM and 16 nM and 52 nM"}, {"measurement": "Plasma Compound Ib Concentrations", "setting": "150 mg/kg SC day 0, individual animals, study week 12, SHIV dose 100 x TCID50", "result": "44 nM and 112 nM and 35 nM and 13 nM and 19 nM and 47 nM and 59 nM and 58 nM"}, {"measurement": "Plasma Compound Ib Concentrations", "setting": "150 mg/kg SC day 0, individual animals, study week 13, SHIV dose 100 x TCID50", "result": "37 nM and 51 nM and 41 nM and 7.3 nM and 13 nM and 44 nM and 61 nM and 42 nM"}, {"measurement": "Plasma Compound Ib Concentrations", "setting": "150 mg/kg SC day 0, individual animals, study week 14, SHIV dose 100 x TCID50", "result": "33 nM and 84 nM and 22 nM and 5.2 nM and 13 nM and 34 nM and 31 nM and 40 nM"}, {"measurement": "Plasma Compound Ib Concentrations", "setting": "150 mg/kg SC day 0, individual animals, study week 15, SHIV dose 100 x TCID50", "result": "26 nM and 39 nM and 19 nM and 3.2 nM and 8.9 nM and 16 nM and 32 nM and 22 nM"}, {"measurement": "Plasma Compound Ib Concentrations", "setting": "150 mg/kg SC day 0, individual animals, study week 16, SHIV dose N/A", "result": "11 nM and 28 nM and 13 nM (2×) and 1.6 nM and 6.1 nM and 18 nM and 12 nM"}, {"measurement": "Plasma Compound Ib Concentrations", "setting": "150 mg/kg SC day 0, individual animals, study week 17, SHIV dose N/A", "result": "12 nM and 21 nM (2×) and 14 nM (2×) and 1.2 nM and 5.1 nM and 17 nM"}, {"measurement": "Plasma Compound Ib Concentrations", "setting": "300 mg/kg SC day 0, individual animals, study week 1, SHIV dose 10 x TCID50", "result": 6745, "unit": "nM"}, {"measurement": "Plasma Compound Ib Concentrations", "setting": "300 mg/kg SC day 0, individual animals, study week 2, SHIV dose 10 x TCID50", "result": 5021, "unit": "nM"}, {"measurement": "Plasma Compound Ib Concentrations", "setting": "300 mg/kg SC day 0, individual animals, study week 3, SHIV dose 10 x TCID50", "result": 1254, "unit": "nM"}, {"measurement": "Plasma Compound Ib Concentrations", "setting": "300 mg/kg SC day 0, individual animals, study week 4, SHIV dose 10 x TCID50", "result": 743, "unit": "nM"}, {"measurement": "Plasma Compound Ib Concentrations", "setting": "300 mg/kg SC day 0, individual animals, study week 5, SHIV dose 10 x TCID50", "result": 556, "unit": "nM"}, {"measurement": "Plasma Compound Ib Concentrations", "setting": "300 mg/kg SC day 0, individual animals, study week 6, SHIV dose 10 x TCID50", "result": 396, "unit": "nM"}, {"measurement": "Plasma Compound Ib Concentrations", "setting": "300 mg/kg SC day 0, individual animals, study week 7, SHIV dose 10 x TCID50", "result": 343, "unit": "nM"}, {"measurement": "Plasma Compound Ib Concentrations", "setting": "300 mg/kg SC day 0, individual animals, study week 8, SHIV dose 10 x TCID50", "result": 287, "unit": "nM"}, {"measurement": "Plasma Compound Ib Concentrations", "setting": "300 mg/kg SC day 0, individual animals, study week 9, SHIV dose 33 x TCID50", "result": 147, "unit": "nM"}, {"measurement": "Plasma Compound Ib Concentrations", "setting": "300 mg/kg SC day 0, individual animals, study week 10, SHIV dose 33 x TCID50", "result": "131 nM and 73 nM and 70 nM and 55 nM and 98 nM and 117 nM and 106 nM and 114 nM"}, {"measurement": "Plasma Compound Ib Concentrations", "setting": "300 mg/kg SC day 0, individual animals, study week 11, SHIV dose 100 x TCID50", "result": "96 nM and 32 nM and 50 nM (2×) and 60 nM and 94 nM and 52 nM and 72 nM"}, {"measurement": "Plasma Compound Ib Concentrations", "setting": "300 mg/kg SC day 0, individual animals, study week 12, SHIV dose 100 x TCID50", "result": "53 nM and 93 nM and 85 nM and 66 nM and 84 nM and 75 nM and 101 nM"}, {"measurement": "Plasma Compound Ib Concentrations", "setting": "300 mg/kg SC day 0, individual animals, study week 13, SHIV dose 100 x TCID50", "result": "66 nM (2×) and 32 nM and 74 nM (2×) and 43 nM and 47 nM and 77 nM"}, {"measurement": "Plasma Compound Ib Concentrations", "setting": "300 mg/kg SC day 0, individual animals, study week 14, SHIV dose 100 x TCID50", "result": "63 nM and 40 nM and 83 nM and 94 nM and 45 nM and 85 nM and 41 nM and 86 nM"}, {"measurement": "Plasma Compound Ib Concentrations", "setting": "300 mg/kg SC day 0, individual animals, study week 15, SHIV dose 100 x TCID50", "result": "32 nM and 48 nM and 47 nM (2×) and 46 nM and 29 nM and 50 nM"}, {"measurement": "Plasma Compound Ib Concentrations", "setting": "300 mg/kg SC day 0, individual animals, study week 16, SHIV dose N/A", "result": "26 nM and 22 nM and 28 nM and 24 nM and 20 nM and 34 nM and 15 nM and 30 nM"}, {"measurement": "Plasma Compound Ib Concentrations", "setting": "300 mg/kg SC day 0, individual animals, study week 17, SHIV dose N/A", "result": "23 nM and 17 nM and 28 nM and 26 nM and 21 nM and 24 nM and 13 nM and 38 nM"}]}]}
